Measured values as given in paper PMC4336329 (PLoS ONE, 2015).
Out of some 310,000 compounds screened, about 14,000 (4.5%) showed an effect of 50% or more. The effect is printed as a negative number. This is one part of the list.

Biological target: human ether-à-go-go-related gene (hERG) potassium channel (human, UniProt Q12809)
Assay: primary screen, population patch clamp on CHO cells stably expressing hERG
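Note: peak tail current of the secondary pulse compared with the same well before compound.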

human ether-à-go-go-related gene (hERG) potassium channel, sequence (Q12809 whole entry, looked up): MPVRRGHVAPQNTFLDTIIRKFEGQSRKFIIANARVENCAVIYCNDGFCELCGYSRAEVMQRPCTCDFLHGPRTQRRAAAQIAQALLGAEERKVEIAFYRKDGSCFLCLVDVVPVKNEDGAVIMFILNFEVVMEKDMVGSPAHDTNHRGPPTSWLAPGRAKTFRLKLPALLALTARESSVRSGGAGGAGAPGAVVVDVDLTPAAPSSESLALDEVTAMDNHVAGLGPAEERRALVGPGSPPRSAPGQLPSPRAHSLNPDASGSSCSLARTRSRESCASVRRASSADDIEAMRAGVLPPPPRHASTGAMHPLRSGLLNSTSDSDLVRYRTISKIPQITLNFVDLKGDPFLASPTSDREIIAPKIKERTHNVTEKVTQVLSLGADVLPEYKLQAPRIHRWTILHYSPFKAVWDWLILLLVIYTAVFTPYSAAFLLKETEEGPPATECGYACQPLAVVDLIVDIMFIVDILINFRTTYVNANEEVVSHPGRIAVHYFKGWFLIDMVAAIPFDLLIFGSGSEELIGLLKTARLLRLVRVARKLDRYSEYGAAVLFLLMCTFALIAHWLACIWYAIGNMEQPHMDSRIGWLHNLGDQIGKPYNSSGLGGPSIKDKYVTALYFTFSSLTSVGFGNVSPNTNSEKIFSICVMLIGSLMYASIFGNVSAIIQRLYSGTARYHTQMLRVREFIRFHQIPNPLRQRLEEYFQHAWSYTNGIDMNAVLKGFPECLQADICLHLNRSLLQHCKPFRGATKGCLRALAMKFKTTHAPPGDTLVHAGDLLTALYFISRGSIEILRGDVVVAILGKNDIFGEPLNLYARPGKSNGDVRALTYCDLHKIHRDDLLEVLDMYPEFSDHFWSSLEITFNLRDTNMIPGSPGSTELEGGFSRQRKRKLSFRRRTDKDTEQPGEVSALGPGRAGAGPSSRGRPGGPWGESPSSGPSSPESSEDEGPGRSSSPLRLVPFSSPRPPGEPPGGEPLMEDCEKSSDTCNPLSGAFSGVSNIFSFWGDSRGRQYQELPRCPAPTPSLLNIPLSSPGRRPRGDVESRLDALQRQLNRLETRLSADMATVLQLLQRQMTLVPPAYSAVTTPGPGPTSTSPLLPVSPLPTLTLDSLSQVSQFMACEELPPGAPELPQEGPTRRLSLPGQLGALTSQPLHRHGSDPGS

| Compound | hERG current change (%, negative = inhibition) at 10uM [%] |
| --- | --- |
| O=C(N/N=C/c1cccc(F)c1)NC1CCCCC1 | 3.12 |
| CCc1c(O)cc2n(c1=O)-c1ccccc1C2(C)C | 5.2 |
| O=C1CCC(C(=O)N2CCCCO2)CN1CCc1ccc(Cl)cc1 (stereo not drawn) | -7.82 |
| Cc1sc(NC(=S)NC(=O)c2ccco2)c(C(N)=O)c1C | 18.7 |
| O=C(NNC(=S)NCC1CCCO1)c1cc(Br)ccc1Cl (stereo not drawn) | 3.13 |
| CCN(CC)S(=O)(=O)c1ccc(S(=O)(=O)N(Cc2ccccn2)Cc2ccco2)cc1 | -30.6 |
| CC(NC(=O)c1cccnc1Sc1ccccc1)c1ccc(S(N)(=O)=O)cc1 (stereo not drawn) | 15.9 |
| CC(C)(C)OC(=O)NC(CCNC=C1C(=O)OC(C)(C)OC1=O)C(=O)O (stereo not drawn) | 0.158 |
| Cc1cc2cc(C#N)c(N3CCOCC3)nc2cc1Cl | 2.01 |
| C=CCSc1n[nH]c(-c2ccccc2)n1 | 0.34 |
| CCn1c(SCC(N)=O)nc2c1c(=O)n(C)c(=O)n2C | 17.8 |
| COc1ccc(N2CCN(C(=O)c3ccc4c(c3)NC(=O)C(CSCc3c(F)cccc3Cl)N4)CC2)cc1 (stereo not drawn) | 20.5 |
| CN(C)S(=O)(=O)c1ccc(Cl)c(NC(=O)CN2CCNC(=O)C2)c1 | 11.3 |
| Cc1ccc(S(=O)(=O)n2ccc(-c3cccc(OCc4c(F)cccc4Cl)c3)n2)cc1 | 6.83 |
| CCc1nc(N2CCC3(CC2)OCCO3)c2nnn(Cc3ccccc3)c2n1 | -37.1 |
| CCOc1ccc(Nc2nc(Cc3nnc(SCC(=O)NC4CCCC4)n3C)cs2)cc1 | -29.8 |
| COc1ccccc1N(C(=O)c1csnn1)C(C(=O)NC1CCCC1)c1ccccc1 (stereo not drawn) | -1.69 |
| CC(=O)C1=C(O)C(=O)N(c2ccc(Br)cn2)C1c1ccc(F)cc1 (stereo not drawn) | 16.9 |
| C=CCn1c(=O)c2ccccc2n2c(SC(C)C(N)=O)nnc12 (stereo not drawn) | 7.3 |
| COc1cccc(N2CC(C(=O)Nc3nnc(SCc4cccnc4)s3)CC2=O)c1 (stereo not drawn) | -26.7 |
| Cc1cccn2c(=O)c3cc(C(=O)NCc4cccnc4)c(=N)n(CC4CCCO4)c3nc12 (stereo not drawn) | -75.6 |
| CCOc1ccc(/C=N/N2C(=O)C(CC(=O)Nc3ccc(F)cc3F)SC2=NC)cc1OC (stereo not drawn) | 3.82 |

| Compound | hERG current change (%, negative = inhibition) at 10uM [%] |
| --- | --- |
| NC(=O)CSc1nnc(Cc2csc(Nc3ccc(F)cc3)n2)n1Cc1ccccc1 | -3.78 |
| CN(C)c1ccc(CN(C(=O)c2cccs2)C2CCS(=O)(=O)C2)cc1 (stereo not drawn) | -3.63 |
| CC(=O)Nc1ccccc1Sc1ccccc1 | -15.8 |
| COc1cc(-c2noc(C)c2C#CC2(O)CCCCC2)cc(OC)c1OC | -7.21 |
| COc1ccc(CCN2C(=O)CCC2(C)C(=O)NCc2cccnc2)cc1OC (stereo not drawn) | 15.1 |
| O=C(Cn1cccc1C(=O)c1ccccc1)NCCc1ccc(Cl)cc1 | 16.3 |
| O=C(Nc1ccccc1)c1cccc(C(F)(F)F)c1 | 7.31 |
| O=C(CN(CCc1ccccc1)C(=O)CNS(=O)(=O)c1ccccc1)NCC1CCCO1 (stereo not drawn) | 7.81 |
| O=C(Cn1ncc2c3ccccc3n(Cc3ccc(F)cc3)c2c1=O)N1CCC2(CC1)OCCO2 | -67.2 |
| CCOc1ccc(CNC(=S)N/N=C/c2cccnc2)cc1 | -17.5 |
| CCCCNC(=O)c1cc2nc(-c3ccccc3)cc(C(F)(F)F)n2n1 | -7.95 |
| CCCCCCN=CC1=C(O)C(C(=O)OC)C(C)(C)CC1=O (stereo not drawn) | -4.72 |
| COc1ccc(NC(=O)CCS(=O)(=O)c2cccc3nonc23)cc1Cl | 2.39 |
| Cl.O=C(OCCN1CCCCC1)c1cccc(Cl)c1 | -30.6 |
| Cc1oc(-c2ccc(Cl)cc2)nc1CS(=O)CC(=O)NC1CCCCCC1 (stereo not drawn) | -6.93 |
| CC1CN(C(=O)c2ccccc2Nc2ccc(SC(F)F)cc2)CC(C)O1 (stereo not drawn) | -29.2 |
| CCC/C(=N/NC(=O)c1ccc2c(c1)OCO2)c1cccs1 | 7.75 |
| N#CC1=C(SCc2ccccc2)NC(=O)C(C#N)C12CCCC2 (stereo not drawn) | 1.97 |
| C[C@H]1[C@@H](c2ccccc2)O[C@@H](c2ccccc2Br)N1C | 6.28 |
| O=C(Nc1ccc(Cl)c(Cl)c1)Nc1nnc(-c2ccncc2)s1 | -0.965 |
| CC(=O)N1CCN(c2ccc(NS(=O)(=O)c3ccc(C)cc3)cc2)CC1 | 11.4 |
| O=C(CCCn1c(=S)[nH]c2ccsc2c1=O)Nc1ccc2c(c1)OCCO2 | 8.37 |

| Compound | hERG current change (%, negative = inhibition) at 10uM [%] |
| --- | --- |
| CC(=O)c1ccc(NC(=O)CSc2nc(Nc3ccccc3)nc(N3CCOCC3)n2)cc1 | -17.7 |
| Cc1ccc(C(=O)N2CCC3(CC2)Oc2ccc(F)cc2C(=O)C32CC(c3ccc(Cl)cc3)=NO2)s1 (stereo not drawn) | 26 |
| COC(=O)C1CC(=O)N(Cc2ccccc2)C1 (stereo not drawn) | 23.4 |
| CC1(C)NC(=O)N(CCCCOc2ccc3ccccc3c2Cl)C1=O | 16.4 |
| CS(=O)(=O)N1Cc2ccccc2CC1C(=O)Nc1ccccc1C(N)=O (stereo not drawn) | -1.25 |
| Cc1c(C(=O)Nc2ccc(F)c(F)c2)oc2ccc(S(=O)(=O)N3CCCCC3)cc12 | -0.731 |
| O=[N+]([O-])c1cc(S(=O)(=O)C(F)(F)F)ccc1N1CCN(c2ccccc2)CC1 | -14.9 |
| CCc1ccc(NC(=O)Cn2nc(C)c([N+](=O)[O-])c2C)cc1 | 16 |
| CCOC(CNc1c([N+](=O)[O-])c(=O)n(C)c(=O)n1C)OCC | 14.3 |
| O=C(NC1CCCCC1)c1ccc(S(=O)(=O)N2CCCCC2)cc1 | -6.43 |
| COc1ccccc1-c1nc(SCC(=O)Nc2cc(C)on2)c2c(=O)n(C)c(=O)n(C)c2n1 | -28.5 |
| O=C1NC(=O)C2C1C(c1cccs1)NN2Cc1ccccc1 (stereo not drawn) | 9.29 |
| CN(Cc1ccccc1)C(=O)c1nc2ccccn2c1CNCCOc1cccnc1 | -31 |
| O=C(Nc1cccnc1)C1OCCc2ccccc21 (stereo not drawn) | -1.77 |
| COc1ccccc1N=C1SC(C(=O)Nc2cccc(Cl)c2Cl)C(N)=C1C(N)=O (stereo not drawn) | 17 |
| CCOc1ccc2oc(C(=O)N3CC(C)OC(C)C3)c(C)c2c1 (stereo not drawn) | 6.38 |
| O=C(/C(=N\O)n1cncn1)c1ccc(Cl)cc1Cl | 15.7 |
| CC(=O)c1sc(NC(=O)COc2ccccc2)nc1C | 3.6 |
| COC(=O)c1sccc1NC(=O)Nc1ccc(C(C)=O)cc1 | 11.2 |
| Cc1nnc(N/N=C/c2ccccc2F)n1N | 14.5 |
| CCOc1ccc(CNn2cnnc2)cc1 | 2.33 |
| O=C(NC1CC1)C1=C[C@@H](C2CC2)C[C@@H](OCc2ccc(CO)cc2)O1 | 3.82 |

| Compound | hERG current change (%, negative = inhibition) at 10uM [%] |
| --- | --- |
| C=CCn1c(SCC(=O)N2CCN(C(=O)c3ccco3)CC2)nc2sc(CC)cc2c1=O | -76.3 |
| Cc1csc2nc(CNC(=O)C3CCCCC3)cn12 | 0.915 |
| COCCN1C(=O)C(O)=C(C(C)=O)C1c1ccc(OC)c(OC)c1 (stereo not drawn) | 16.2 |
| CCOc1ccc(C(=O)Nc2ccc(-c3cc4ccccc4oc3=O)c(C)c2)cc1[N+](=O)[O-] | 1.33 |
| Cc1ccc(C(=O)Nc2ccc(S(=O)(=O)NC3=NCCCCC3)cc2)cc1S(=O)(=O)N1CCOCC1 | 3.24 |
| N#CC1=C(N)n2c(s/c(=C\c3cccs3)c2=O)=C(C#N)C1c1cccs1 (stereo not drawn) | -7.83 |
| COC(=O)C1=C(C)OC(N)=C(C#N)C1c1c(C)nn(C)c1C (stereo not drawn) | 6.51 |
| Cc1ccccc1NC(=O)CSc1nc2c(c(=O)n(C)c(=O)n2C)n1C | -5.42 |
| Cc1ccc(NC(=O)CN(C)S(=O)(=O)c2ccc3[nH]c(=O)oc3c2)c(C)c1 | -4.26 |
| Cc1cccc(C(=O)NNC(=O)c2ccc(O)cc2)c1 | -2.31 |
| CN1c2ccsc2/C(=N/Nc2ccc(F)cc2)CS1(=O)=O | 8.61 |
| Cc1cccc(OCC(=O)Nc2ccc(S(=O)(=O)Nc3cc(C)nc(C)n3)cc2)c1 | 19.8 |
| COc1ccc(-c2cc(C(=O)NCCCn3ccnc3)no2)cc1OC | 3.22 |
| CCn1c(=O)c2c(nc3n2CCN3c2ccccc2)n(C)c1=O | -2.56 |
| O=c1c2ccccc2c2ccccc2c(=O)n1-c1ccccc1 | 10.6 |
| COC(=O)c1ccccc1NC(=O)N1CCN(c2ccccc2)CC1 | -2.67 |
| Cc1cccc(-c2oc3ccc(-c4ccc5c(c4)OCO5)cc3c2-c2ccc(OC3CCCCO3)cc2)c1 (stereo not drawn) | 20.2 |
| COc1ccc(NC(=O)Cc2c(Sc3ccccc3)c3ccccc3n2C)cc1 | 22.6 |
| O=C(CSCc1cccc(CSCC(=O)Nc2ccccc2)n1)Nc1ccccc1 | -67 |
| O=C(CCCN1CCC(O)(c2ccc(Br)cc2)CC1)c1ccc(F)cc1 | -79.7 |
| O=C(Nc1nnc(-c2ccncc2)s1)C1CCCO1 (stereo not drawn) | 21 |
